Experimental data reported in the RNAGym collection of RNA variant scans (doi:10.1101/gad.245936.114).
Variants at the background level are over-represented here.

B1: tRNA (parent)
chain: CUCUCGGUAGCCAAGUUGGUUUAAGGCGCAAGACUUUAAUUUAUCACUACGAAAUCUUGAGAUCGGGCGUUCGACUCGCCCCCGGGAGAUUUUUUCCUCGAGCAA

Variants of: B1
Test: nonsense suppression (GFP-seq) (ratio to wild type); higher = more function; SUP4oc tRNA, yeast GFP reporter sort-seq
Method in brief: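 Raffinose/galactose medium with 80 mg/L adenine was used to grow yeast carrying genome-integrated tRNA variants (~3% random-mutation library), RFP, and a galactose-driven GFP ochre reporter. Cells went into GFP/RFP bins, which were Illumina-sequenced, and variants with ≥100 reads and ≥30 cells were scored. Nonsense suppression (GFPSEQ) is the per-bin median GFP/RFP weighted by estimated cell share and expressed relative to the unmutated parent tRNA.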

Point of comparison: CUCUCGGUAGCCAAGAUGGUUUACGGCGCAAGACUUUAAUUUAUCACUACGAAAUCUUGAGAUCGGGCGUUCGACUCGCCCCCGGGAGAUUUUUUCCUCGAGCAA [U16A A24C], nonsense suppression 0.872. Against it:
- CUCUCGGUAGCCAAUUUGGUUUAAGGCGCAAGACUUUAAUUUAUCACUACGAAAACUUGAUCUCGGGCGUUCGCCUCGCCCCCGGGAGAUUUUUUCCUCGAGCAA [G15U U55A G61U A62C A74C] — lower, ≤ 0.026
- CUCUCGGUAGCCAAUUUGGUUUAAGGCGCAAGACUUUAAUUUAUCACUACGAAAUCUGGAGAUCGGGCGUUCGACUCGCCCCCGGGAGAUUUUUUCCUCGAGCAA [G15U U58G] — lower, ≤ 0.026
- CUCUCGGUAGCCAAUUUGGUUUAAGGCGCAAGACUUUAAUUUAUCACUACGAAAUCUUGAGACCGGGCCUUCGACUCGCCCCCGGGAGAUUUUUUCCUCGAGCAA [G15U U63C G69C] — lower, ≤ 0.026
- CUCUCGGUAGCCAAUUUGGUUUAAGGCGCAAGACUUUAAUUUAUCACUACGAAAUCUUGAGAUCGGGCGGUCCACUCGCCCCCGGGAGAUUUUUUCCUCGAGCAA [G15U U70G G73C] — lower, ≤ 0.026
- CUCUCGGUAGCCAAUUUGGUUUAAGGCGCAAGACUUUAAUUUAUCACUACGAAAUCUUGAGAUCGGGCGUACGACUCGCCCGCGGGAGAUUUUUUCCUCGAGCAA [G15U U71A C82G] — lower, ≤ 0.026
- CUCUCGGUAGCCAAUUUGGUUUAAGGCGCAAGACUUUAAUUUAUCACUACGAAAUCUUGAGAUCGGGCGUCCGACUCGCCCCCGGGAGAUUUUUUCCUCGAGCAA [G15U U71C] — lower, ≤ 0.026
- CUCUCGGUAGCCAAUUUGGUUUAAGGCGCAAGACUUUAAUUUAUCACUACGAAAUCUUGAGAUCGGGCGUUCGACGCGCCCGCGGGCGAUUUUUUCCUCGAGCAA [G15U U76G C82G A87C] — lower, ≤ 0.026
- CUCUCGGUAGCCAAGAUGGUUUCAGGCGCAAGACUUUAAUUUAUCACUACGAAAUCUUGAGAUCGGGCGUUCGACUCGCCCCCGGGAGAUUUUUUCCUCGAGCAA [U16A A23C] — lower, ≤ 0.026
- CUCUCGGUAGCCAAGAUGGUUUUAGGCGCAAGACUUUAAUUUAUCACUACGAAAUCUUGAGAUCGGGCGUUCGACUCGCCCCCGGGAGAUUUUUUCCUCGAGCAA [U16A A23U] — lower, ≤ 0.026
- CUCUCGGUAGCCAAGAUGGUUUACGGCGCAAGACUUUAAUUUAUCACUACGAAAUCUUGAGAUCAGGCGGUCGACUCGCCCCCGGGAGAUUUUUUCCUCGAGCAA [U16A A24C G65A U70G] — lower, ≤ 0.026
- CUCUCGGUAGCCAAGAUGGUUUAAGGCGCAUGACUUUAAUUUAUCACUACGAAAUCUUCAGAUCGGGCGUUCGACUCGCCCCCGGUAGAUUUUUUCCUCGAGCAA [U16A A31U G59C G86U] — lower, ≤ 0.026
- CUCUCGGUAGCCAAGAUGGUUUAAGGCGCAAGCCUUUAAUUUAUCACUACGAAAUCUUGAGAUCGGGCGUUCGACUCGCCCCCGGGAGAUUUUUUCCUCGAGCAA [U16A A33C] — lower, ≤ 0.026
- CUCUCGGUAGCCAAGAUGGUUUAAGGCGCAAGACUUUAAUUUAUCACUACGAACUCAUGAGAUCGGACGUUCGACUCGCCCCCGGGAGAUUUUUUCCUCGAGCAA [U16A A54C U57A G67A] — lower, ≤ 0.026
- CUCUCGGUAGCCAAGAUGGUUUAAGGCGCAAGACUUUAAUUUAUCACUACGAAAUCUUGCGAUUGGGCGUUCGACUCGCCCCCGGGAGAUUUUUUCCUCGAGCAA [U16A A60C C64U] — lower, ≤ 0.026
- CUCUCGGUAGCCAAGAUGGUUUAAGGCGCAAGACUUUAAUUUAUCACUACGAAAUCUUGCGACCGGGCGUUCGACUCGCCCCCGGGAGAUUUUUUCCUCGAGCAA [U16A A60C U63C] — lower, ≤ 0.026
- CUCUCGGUAGCCAAGAUGGUUUAAGGCGCAAGACUUUAAUUUAUCACUACGAAAUCUUGAGAUCGGGCGUUCGACUCGCCCCCGGGGAAUUUUUUCCUCGAGCAA [U16A A87G G88A] — lower, ≤ 0.026
- CUCUCGGUAGCCAAGAUGGUUUAAGGCGCAAGACUUUAAUUUAUCACUACGAAAUCUUGAGAUCGGGCGUUCGACUCGCCCCCGGGAGCUUUUUUCCUCGAGCAA [U16A A89C] — lower, ≤ 0.026
- CUCUCGGUAGCCAAGAUGGUUUAAGGCGAAAGACUUUAAUUUAUCACUACGAAAUCUUGAGAUCUGGCGUUCGACUCGCCCCCGGGAGAUUUUUUCCUCGAGCAA [U16A C29A G65U] — lower, ≤ 0.026
- CUCUCGGUAGCCAAGAUGGUUUAAGGCGCAAGAAUUUAAUUUAUCACUACGAAAUCUUGCGAGCGGGCGUUCGACUCGCCCCCGGGAGAUUUUUUCCUCGAGCAA [U16A C34A A60C U63G] — lower, ≤ 0.026
- CUCUCGGUAGCCAAGAUGGUUUAAGGCGCAAGAAUUUAAUUUAUCACUACGAAAUCUUGAGAUUGGGCGUUCGACUCGCCCCCGGGAGAUUUUUUCCUCGAGCAA [U16A C34A C64U] — lower, ≤ 0.026
- CUCUCGGUAGCCAAGAUGGUUUAAGGCGCAAGACUUUAAUUUAUCACUACGAAAUCUUGAGAUAGGGCGUUCGACUCGCCCCCGGGAGAUUUUUUCCUCGAGCAA [U16A C64A] — lower, ≤ 0.026
- CUCUCGGUAGCCAAGAUGGUUUAAGGCGCAAGACUUUAAUUUAUCACUACGAAAUCUUGAGAUGGGGCUUUCGACUCGCCCCCGGGAGAUUUUUUCCUCGAGCAA [U16A C64G G69U] — lower, ≤ 0.026
- CUCUCGGUAGCCAAGAUGGUUUAAGGCGCAAGACUUUAAUUUAUCACUACGAAAUCUUGAGAUUGGGCGUUCGACUCGCCCCCGGGGGAUUUUUUCCUCGAGCAA [U16A C64U A87G] — lower, ≤ 0.026
- CUCUCGGUAGCCAAGAUGGUUUAAGGCGCAAGACUUUAAUUUAUCACUACGAAAUCUUGAGAUCGGGCGUUCGACUGGCCCCCGGGAGAUUUUUUCCUCGAGCAA [U16A C77G] — lower, ≤ 0.026
- CUCUCGGUAGCCAAGAUGGUUUAAGGCGCAAGACUUUAAUUUAUCACUACGAAAUCUUGAGAUCGGGCGUUCGACUCGCGCCCGGGAGAUUUUUUCCUCGAGCAA [U16A C80G] — lower, ≤ 0.026
- CUCUCGGUAGCCAAGAUGGUUUAAGGCGCAAGACUUUAAUUUAUCACUACGAAAUCUUGAGAUCGGGCGUUCGACUCGCCCCGGGGAGAUUUUUUCCUCGAGCAA [U16A C83G] — lower, ≤ 0.026
